Test results reported in article PMC4831272.
These are yes or no findings as the source states them, for the method shown. For some of these results: Binding seen in cells or lysates may run through a third protein. Some results given as binding are weak or reduced against the parent protein; the word gives no strength. Blank lines part the entries; values can stand above or below the substance they belong to.

Sequences of proteins named here, by UniProt entry; tags and fusion partners are left off. A change or cut given only in a name is not applied to a line headed by its entry. A line that says so, or that is headed by a name, gives the form on record, which may keep a tag or linker. Residues count along the entry.
UniProt Q9NPQ8: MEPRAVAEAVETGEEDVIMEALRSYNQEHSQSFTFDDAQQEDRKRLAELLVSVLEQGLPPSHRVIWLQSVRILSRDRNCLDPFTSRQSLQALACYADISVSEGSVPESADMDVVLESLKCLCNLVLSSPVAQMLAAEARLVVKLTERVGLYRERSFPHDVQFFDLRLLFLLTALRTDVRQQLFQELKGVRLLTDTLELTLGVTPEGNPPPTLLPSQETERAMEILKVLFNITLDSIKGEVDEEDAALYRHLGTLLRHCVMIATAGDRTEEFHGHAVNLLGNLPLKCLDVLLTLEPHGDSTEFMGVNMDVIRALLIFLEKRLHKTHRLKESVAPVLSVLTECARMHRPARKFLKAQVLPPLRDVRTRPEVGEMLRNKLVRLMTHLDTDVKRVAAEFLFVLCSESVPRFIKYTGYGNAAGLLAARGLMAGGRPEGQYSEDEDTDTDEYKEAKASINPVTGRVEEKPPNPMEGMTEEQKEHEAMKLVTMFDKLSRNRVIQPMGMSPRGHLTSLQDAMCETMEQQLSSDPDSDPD
UniProt Q14344: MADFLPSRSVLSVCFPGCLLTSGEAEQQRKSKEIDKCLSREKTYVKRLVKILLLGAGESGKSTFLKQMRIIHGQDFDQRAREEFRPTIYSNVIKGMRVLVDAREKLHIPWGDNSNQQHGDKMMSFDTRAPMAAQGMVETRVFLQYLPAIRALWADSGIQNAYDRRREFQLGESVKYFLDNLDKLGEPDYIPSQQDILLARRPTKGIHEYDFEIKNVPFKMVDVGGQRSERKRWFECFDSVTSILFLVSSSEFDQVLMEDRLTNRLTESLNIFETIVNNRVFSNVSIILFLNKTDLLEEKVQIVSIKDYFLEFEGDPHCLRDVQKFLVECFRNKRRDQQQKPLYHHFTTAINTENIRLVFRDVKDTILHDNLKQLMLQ
FS-tagged Gα13 deletion construct C (aa 224–377): residues 224-377 of Q14344
FS-tagged Gα13 deletion construct D4 (aa 259–377): residues 259-377 of Q14344
FS-tagged Gα13 deletion construct D5 (aa 302–377): residues 302-377 of Q14344
FS-tagged Gα13 deletion construct D8 (302–340): residues 302-340 of Q14344
FS-tagged Gα13 deletion construct D6 (342–377): residues 342-377 of Q14344
UniProt P50148: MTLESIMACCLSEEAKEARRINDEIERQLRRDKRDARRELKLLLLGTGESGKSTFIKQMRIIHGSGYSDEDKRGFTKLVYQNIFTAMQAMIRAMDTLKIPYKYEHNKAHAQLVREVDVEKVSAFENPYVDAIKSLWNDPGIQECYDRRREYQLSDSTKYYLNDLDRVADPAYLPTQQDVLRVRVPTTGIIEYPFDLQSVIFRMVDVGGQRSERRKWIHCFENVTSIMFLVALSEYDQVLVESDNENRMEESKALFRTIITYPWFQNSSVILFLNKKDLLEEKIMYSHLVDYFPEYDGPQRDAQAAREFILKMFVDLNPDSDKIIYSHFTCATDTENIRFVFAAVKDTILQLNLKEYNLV
UniProt P29992: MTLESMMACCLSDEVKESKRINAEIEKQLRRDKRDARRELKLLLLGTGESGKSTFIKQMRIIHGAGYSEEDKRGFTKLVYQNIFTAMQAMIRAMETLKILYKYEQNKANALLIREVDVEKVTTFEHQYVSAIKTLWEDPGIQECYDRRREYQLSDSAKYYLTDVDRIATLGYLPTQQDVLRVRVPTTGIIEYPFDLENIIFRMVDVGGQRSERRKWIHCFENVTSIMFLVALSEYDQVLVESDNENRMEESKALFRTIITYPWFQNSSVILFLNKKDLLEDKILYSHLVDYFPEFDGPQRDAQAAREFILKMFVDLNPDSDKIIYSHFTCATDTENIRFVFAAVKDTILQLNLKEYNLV
UniProt P04899: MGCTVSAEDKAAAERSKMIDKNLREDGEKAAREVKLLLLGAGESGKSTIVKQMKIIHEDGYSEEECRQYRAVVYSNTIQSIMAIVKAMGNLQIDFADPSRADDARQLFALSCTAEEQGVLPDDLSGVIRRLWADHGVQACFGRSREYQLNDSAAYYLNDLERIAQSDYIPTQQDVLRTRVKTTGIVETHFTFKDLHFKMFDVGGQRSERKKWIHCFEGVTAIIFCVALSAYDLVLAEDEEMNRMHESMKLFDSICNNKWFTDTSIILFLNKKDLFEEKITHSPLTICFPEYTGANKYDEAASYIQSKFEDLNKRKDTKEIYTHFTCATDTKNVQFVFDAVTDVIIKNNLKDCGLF
UniProt Q03113: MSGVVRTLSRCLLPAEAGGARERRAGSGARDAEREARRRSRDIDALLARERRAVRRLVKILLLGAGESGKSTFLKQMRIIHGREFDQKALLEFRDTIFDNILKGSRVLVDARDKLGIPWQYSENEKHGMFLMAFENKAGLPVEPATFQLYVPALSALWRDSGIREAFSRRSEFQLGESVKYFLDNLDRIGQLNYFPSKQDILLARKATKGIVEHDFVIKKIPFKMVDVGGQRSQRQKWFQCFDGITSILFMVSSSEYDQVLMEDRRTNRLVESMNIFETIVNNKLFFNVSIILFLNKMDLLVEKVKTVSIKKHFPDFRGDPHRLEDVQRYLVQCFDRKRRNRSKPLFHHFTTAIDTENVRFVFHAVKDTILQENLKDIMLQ

Columns and labels:
HA-epitope tagged Ric-8A = HA-epitope tagged Ric-8A (UniProt Q9NPQ8); assay: co-IP; HA-Ric-8A transiently expressed in SKOV3 cells, 48 hrs; immunoprecipitated with antibodies to HA-epitope; immunoblot for endogenous Gα subunits
[1] = biological target: Ric-8A, ectopically expressed in HEK293 cells (UniProt Q9NPQ8); assay: co-IP; HEK293 cells transfected with Ric-8A and Gα13, treated with DMSO or 10 µM Src kinase inhibitor (SI1 or PP2) overnight; Ric-8A immunoprecipitated, immunoblot for Gα13
[2] = biological target: Ric-8A (Resistance to inhibitors of cholinesterase 8 homolog A), endogenous (human (endogenous in HEK293, SKOV3, HeyA8)) (UniProt Q9NPQ8); assay: co-IP; endogenous proteins; 1 mg lysate of SKOV3 or HeyA8 cells with 1 µg normal mouse IgG, Gα13 antibody (clone 73.1) or Ric-8A antibody (clone 3G3), Protein G EZview beads 16 hrs, 4°C; immunoblot
[3] = biological target: FS-tagged Gα13 deletion construct C (aa 224–377) (human) (UniProt Q14344); assay: co-IP; HEK293 cells transfected with FS-tagged Gα13 constructs, 48 h; 1 mg lysate with anti-FLAG M2 EZview beads, 5 hours, 4°C; immunoblot for endogenous Ric-8A
[4] = biological target: FS-tagged Gα13 deletion construct D4 (aa 259–377) (human) (UniProt Q14344); assay: as above
[5] = biological target: FS-tagged Gα13 deletion construct D5 (aa 302–377) (human) (UniProt Q14344); assay: as above
[6] = biological target: FS-tagged Gα13 deletion construct D6 (342–377) (human) (UniProt Q14344); assay: as above
[7] = biological target: FS-tagged Gα13 deletion construct D8 (302–340) (human) (UniProt Q14344); assay: as above
[8] = biological target: FS-tagged Gα13Q226L (constitutively active mutant of Gα13) (human) (UniProt Q14344); assay: as above
[9] = biological target: FS-tagged wild-type Gα13 (human) (UniProt Q14344); assay: as above
[10] = biological target: Gα13, endogenous (human (endogenous in SKOV3, HeyA8)) (UniProt Q14344); assay: co-IP; endogenous proteins; 1 mg lysate of SKOV3 or HeyA8 cells with 1 µg normal mouse IgG, Gα13 antibody (clone 73.1) or Ric-8A antibody (clone 3G3), Protein G EZview beads 16 hrs, 4°C; immunoblot
[11] = biological target: FS-tagged Gα13Q226L (constitutively active mutant of Gα13) (human) (UniProt Q14344); assay: tandem affinity purification with immunoblot; lysates of vector control and Gα13QL transfectants (HEK293) taken through the second affinity purification; proteins eluted by FLAG peptide, immunoblot with Ric-8A antibodies

Substance: Gαq, endogenous (from UniProt P50148 1-359)
binding (HA-epitope tagged Ric-8A): binds

Substance: Gα13, co-expressed with Ric-8A in HEK293 cells (from UniProt Q14344 1-377)
binding [1]: binds

Substance: Gα11, endogenous (from UniProt P29992 1-359)
binding (HA-epitope tagged Ric-8A): binds

Substance: Ric-8A (Resistance to inhibitors of cholinesterase 8 homolog A), endogenous (from UniProt Q9NPQ8 1-531)
binding [3]: binds
binding [4]: binds
binding [5]: binds
binding [6]: binds
binding [7]: no binding
binding [8]: binds
binding [9]: binds
binding [10]: binds
binding [11]: binds

Substance: Gαi2, endogenous (from UniProt P04899 1-355)
binding (HA-epitope tagged Ric-8A): binds weakly

More lines, main results first:

binding (HA-epitope tagged Ric-8A): binds
Substance: Gα13, endogenous (from UniProt Q14344 1-377)
binding [2]: binds

binding (HA-epitope tagged Ric-8A): binds
Substance: Gα12, endogenous (from UniProt Q03113 1-381)
